Assay results reported in publication PMC3672086, “TWEAK-Independent Fn14 Self-Association and NF-κB Activation Is Mediated by the C-Terminal Region of the Fn14 Cytoplasmic Domain” (PLoS ONE, 2013).
Results are given in words; binding and its absence hold for the method and conditions named. For part of these data: Binding seen in cells or lysates may run through a third protein. Some results given as binding are weak or reduced against the parent protein; the word gives no strength. For part of these data: Tags and fused reporters may be left off the sequences shown. Values belong to the substance of their own block, whether it stands above or below them.

By UniProt entry, the sequences of proteins in these tests, tags left out. Residues count along the entry.
UniProt O43508, residues 94-249: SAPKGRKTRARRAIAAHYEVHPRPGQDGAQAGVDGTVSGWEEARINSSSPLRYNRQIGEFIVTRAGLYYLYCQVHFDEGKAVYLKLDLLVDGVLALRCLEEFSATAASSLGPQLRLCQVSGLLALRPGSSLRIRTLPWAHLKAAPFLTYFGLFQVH

How the values were obtained:
[1] = target: T1, myc epitope-tagged full-length, wild-type human Fn14 (Fn14-FL) (human) (UniProt Q9NP84); assay: far-Western, overlay or dot blot; ligand blot: lysates of transfected HEK293 cells run on SDS-PAGE under non-reducing conditions, PVDF membrane incubated with 100 ng/ml Fc-TWEAK, detected with HRP anti-human IgG/Fc; only the binder purified
T1 sequence: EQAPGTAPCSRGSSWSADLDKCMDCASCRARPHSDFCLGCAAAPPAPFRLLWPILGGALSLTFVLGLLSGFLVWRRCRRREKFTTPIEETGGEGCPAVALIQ

[2] = target: T2, myc epitope-tagged Fn14 extracellular domain deletion (Fn14-ΔEC) (human) (UniProt Q9NP84); assay: as above
T2 sequence: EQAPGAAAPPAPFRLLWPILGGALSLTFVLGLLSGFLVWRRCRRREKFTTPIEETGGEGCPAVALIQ

[3] = target: myc-tagged Fn14 with C122S substitution (human) (UniProt Q9NP84); assay: SDS-PAGE under non-reducing conditions with Western blot; HNTG lysates of transfected HEK293 cells; no DTT in loading buffer, sample not heated; anti-myc blot; shows disulfide-linked dimers formed during lysis
[4] = target: T1, myc epitope-tagged full-length, wild-type human Fn14 (Fn14-FL) (human); assay: condition: only lysis buffer supplemented with 10 mM iodoacetamide; SDS-PAGE under non-reducing conditions with Western blot; as a4 but cell lysis buffer supplemented with 10 mM iodoacetamide; anti-myc blot
[5] = target: T1, myc epitope-tagged full-length, wild-type human Fn14 (Fn14-FL) (human); assay: co-IP; HNTG lysates of HEK293/NF-κB-luc/Fn14-HA cells transfected with Fn14-myc plasmids; immobilized anti-myc antibody (ProFound c-Myc Tag IP/Co-IP kit), anti-HA Western blot
[6] = target: T2, myc epitope-tagged Fn14 extracellular domain deletion (Fn14-ΔEC) (human); assay: as above

binding [1]: binds | binding [2]: no binding (tested: 100 ng/ml)
Substance: recombinant human Fc-TWEAK fusion protein (from UniProt O43508 94-249) (Fc fusion)

binding [3]: no binding
Substance: myc-tagged Fn14 with C122S substitution (from UniProt Q9NP84 28-129) (receptor)

binding [4]: no binding
Substance: myc epitope-tagged full-length, wild-type human Fn14 (Fn14-FL) (from UniProt Q9NP84 28-129) (receptor)

binding [5]: binds | binding [6]: binds
Substance: HA epitope-tagged Fn14-FL (from UniProt Q9NP84 28-129) (receptor)
